Here are results for 96 compounds from PubChem BioAssay AID485344 (National Center for Advancing Translational Sciences (NCATS), 2010).

In general, inhibition refers to the change of the read-out against control, counted positive when it falls.

About 6,900 (2%) of roughly 340,000 compounds were called active. No stated cut-off is given here; in the data, active means inhibition above about 30%; inactive means below that, where a call was filed. The list shows a part of the results, in another mix than the full data. Where no call is shown, the source filed none.

The target of this assay is D(2) dopamine receptor (Homo sapiens) (UniProt P14416). As to the kind of experiment: HTS Assay for Allosteric Antagonists of the Human D2 Dopamine Receptor: Primary Screen for Antagonists. Further: 0% is about no effect. The following applies: HEK293 TREx D2 cells, calcium flux, dopamine EC80; at 10 µM; stronger effect = higher value. The gist of the method: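 Tetracycline-induced HEK293 TREx cells expressing D2 receptor forced-coupled to calcium signalling, loaded with no-wash calcium dye. Compounds added and calcium flux read 180 s, then dopamine added at EC80 and read a further 180 s.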
Sequence of UniProt P14416 (P14416 whole entry, looked up): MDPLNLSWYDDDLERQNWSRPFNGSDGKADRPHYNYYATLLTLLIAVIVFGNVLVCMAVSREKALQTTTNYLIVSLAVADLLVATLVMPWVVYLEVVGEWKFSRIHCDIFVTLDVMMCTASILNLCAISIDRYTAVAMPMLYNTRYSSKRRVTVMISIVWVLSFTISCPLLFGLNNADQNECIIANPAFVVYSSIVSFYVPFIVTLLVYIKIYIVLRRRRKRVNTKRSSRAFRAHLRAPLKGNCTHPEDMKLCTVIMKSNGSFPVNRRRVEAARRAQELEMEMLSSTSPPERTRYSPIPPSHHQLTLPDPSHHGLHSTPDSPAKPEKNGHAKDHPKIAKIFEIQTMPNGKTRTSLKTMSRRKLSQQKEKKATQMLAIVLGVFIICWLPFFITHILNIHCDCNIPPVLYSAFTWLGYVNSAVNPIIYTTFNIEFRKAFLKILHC
In general terms: A change in cytosolic calcium serves as a functional read-out for many receptors and channels.
For the compound `Cc1ccc(Cn2c(=O)n(Cc3ccccc3)c(=O)c3oc4ccccc4c32)cc1`, the inhibition was -0.502%.
In the case of `Cc1cccc(C(=O)Nc2cc3c(cc2C)n(C)c(=O)n3C)c1`, the inhibition is -13.5%.
Under `CCC(=O)N1CCc2cc(Br)cc(S(=O)(=O)NCCc3cccc(C)c3)c21` stands -20.2%; under `O=C(Nc1sc2c(c1C(=O)NCc1ccco1)CCCC2)c1cc(=O)c2cc(Cl)ccc2o1`, 16.7%; under `O=C1C(c2ccc(F)cc2)N(CCc2ccc(Cl)cc2)C(=O)CN1C1CCCCC1` (stereo unspecified), 12.4%.
As for `CCc1ccc(S(=O)(=O)Nc2cccc(-c3ccc(N4CCCCC4)nn3)c2)s1`, the inhibition was determined as 14.3%.
The value for `Cc1nnc(N2CCN(C(=O)NCCC(C)C)CC2)c2nn(-c3ccc(Cl)cc3)c(C)c12` was 1.57%; that for `CCOc1cc(C(=O)Nc2cc3c(cc2N2CCCC2)n(C)c(=O)c(=O)n3C)cc(OCC)c1OCC` was 20.9%.
Under `Cc1cc(C)c2nc(C)cc(Nc3cccc(C(=O)O)c3)c2c1` stands 3.07%.
In the case of `O=S(=O)(c1ccc(Cl)cc1)c1nc(-c2cccs2)oc1N1CCCCC1`, the inhibition was 7.11%.
On to `CCc1cc2c(cc3c(=O)n(CC(=O)NC(C)c4ccccc4)ncn32)s1` (stereo unspecified), for which the inhibition was -6.55%.
The value for `COc1ccccc1CNC(=O)Cc1csc2nc(-c3ccc(F)cc3)cn12` was -25.7%; that for `Cc1cc(C)nc(-n2nc(C)c3c2N(Cc2ccccc2F)C(=O)CC3c2ccc(Cl)cc2)n1` (stereo unspecified) was 14.7%; that for `COc1cccc(NC(=O)CCN2C(=O)c3ccccc3Sc3ncccc32)c1` was -1.28%.
Under `CCc1ccccc1NC(=O)C1CCN(S(=O)(=O)c2cn(C)cn2)CC1` stands 7.1%; under `CCOC(=O)c1sc2ccccc2c1S(=O)(=O)NCc1ccccc1OC`, 3.86%; under `Cc1cccc(OCc2nc(CC(=O)Nc3ccc(Cl)cc3)cs2)c1`, -16.7%.
The value for `CCC1CN(C(=O)N2CCC(C(=O)NCCc3ccc(OC)cc3OC)CC2)c2cc(C)ccc2O1` (stereo unspecified) was 10.3%.
As for `Cc1cccc(C)c1-n1ncc(C(=O)NCCCN2CCC(C)CC2)c1C1CCN(C(=O)OC(C)(C)C)CC1`, the inhibition is -0.548%.
The value for `Cc1cc(Nc2ccc(Br)cc2)nc(C)n1` was -0.248%; that for `CCOC(=O)c1cnc2c(ccc3ccccc32)c1Nc1ccc(C(C)=O)cc1` was -11%; that for `COc1cccc(CSc2nc3ccncc3n2CC(=O)Nc2ccc(OC)c(OC)c2OC)c1` was -19.1%.
The value for `O=C1Cc2cc(S(=O)(=O)N3CCN(c4cccc(Cl)c4)CC3)ccc2N1` was -1.48%; that for `CCn1c(C(=O)NCCc2ccc(S(N)(=O)=O)cc2)cc2sc(Cl)cc21` was -7.15%.
On to `CC(=O)N1CCCc2ccc(NS(=O)(=O)c3cccc(Cl)c3)cc21`, for which the inhibition was -17.1%.
Under `CC(=O)N1CCCC1c1nc2ccccc2n1Cc1ccccc1Cl` (stereo unspecified) stands 14.7%; under `CCOc1ccc(CCn2c3c(c(=O)[nH]c2=O)C(NC(=O)c2cccc(F)c2)(C(F)(F)F)C(=O)N3)cc1OCC` (stereo unspecified), -22.9%; under `Cn1ncc2c(N3CCN(c4ccc(F)cc4)CC3)ncnc21`, -20.5%.
Take `O=C(Cc1ccc(-c2ccccc2)cc1)NCCS(=O)(=O)N1CCN(c2ccc(F)cc2)CC1`: the inhibition stood at 3.15%.
As for `COc1cc(-c2nc3sccn3c2Nc2c(C)cccc2C)ccc1O`, the inhibition was -9.6%.
Under `CCOc1ccc(-n2c(=O)c3c4c(sc3n(CC(=O)NC(C)CC)c2=O)CCCCC4)cc1` (stereo unspecified) stands -1.62%; under `O=C(Nc1ccc(F)cc1)Nc1csc2c1CCCC2`, 4.23%.
The value for `Cc1ccc(CNC(=O)CSc2nc3c(sc4ccccc43)c(=O)n2CCCC(=O)NCCO)cc1` was 11.4%; that for `CCN1C(C(=O)c2ccccc2)=C(OC(=O)COc2ccc(C)cc2)c2ccccc2S1(=O)=O` was 12.5%.
The value for `COC(=O)c1ccc(N2C(=O)Cc3cc(OC)c(OC)cc3C2c2ccc(F)cc2)cc1` (stereo unspecified) was -15.2%; that for `O=C(c1ccc2c(Cl)c3c(nc2c1)CCCC3)N1CCN(c2ccc(Cl)cc2)CC1` was -0.239%.
For `COc1ccc(N2CCN(CCCNC(=O)C3COc4ccccc4C3)CC2)cc1` (stereo unspecified), the inhibition is -11.9%.
The value for `O=C(Nc1nc2c(F)cc(F)cc2s1)c1ccc(S(=O)(=O)N2CCc3ccccc32)cc1` was -20.5%; that for `CCOCCc1nnc(NC(=O)C(=O)c2cc(C)n(-c3ccc(C)cc3C)c2C)s1` was -0.152%.
Under `COc1ccc2c(c1)c1c(c(=O)n(Cc3ccccc3)c(=O)n1CC(=O)Nc1ccccc1OC)n2C` stands -10.7%; under `CCn1c(C)c(C)c2cc(C(=O)NCC(C)c3ccccc3)ccc21` (stereo unspecified), -2.12%; under `COc1ccc(N(CC(=O)Nc2cccc(Cl)c2)S(=O)(=O)c2c(C)[nH]c(=O)[nH]c2=O)cc1`, 16.9%.
Take `Cc1ccccc1-c1noc(CSc2nc3ccccc3[nH]2)n1`: the inhibition is -2.76%.
`COc1ccc(CCCc2nnc(SCC(=O)Nc3cccc(F)c3C)o2)cc1`: the inhibition came to 26%.
`COCCCn1c(SCc2cccc(Cl)c2)nc2c(sc3ccccc32)c1=O`: the inhibition was 12.3%.
Under `CCOCCc1nn2c(=O)cc(COC(=O)c3ccccc3OC)nc2s1` stands -19%; under `CCOC(=O)C1CCCN(C(=O)c2ccc3c(c2)sc2nc(-c4cccc(OC)c4)cn23)C1` (stereo unspecified), 6.47%.
As to `CCc1ccccc1NC(=O)NC1CC2CCC(C1)N2Cc1cccs1` (stereo unspecified), the inhibition was active: 55%.
The value for `CCCC(=O)Nc1cccc(OCc2cc(=O)n3cccc(C)c3n2)c1` was -4.33%; that for `Cc1cc(=O)n2nc(N(C)CC(=O)NCc3ccccc3C)sc2n1` was -0.198%.
On to `CCc1ccccc1Nc1nn2c(=O)c3ccc(C(=O)NCCC4=CCCCC4)cc3nc2s1`, for which the inhibition came to 17.5%.
In the case of `O=C(NCCc1ccccc1)c1cc(Nc2ccccc2)nc2ccccc12`, the inhibition was -19.3%.
Under `CCCSc1ncc(Cl)c(C(=O)Nc2ccc(S(=O)(=O)N3CCCC(C)C3)cc2)n1` (stereo unspecified) stands -5.79%.
Take `O=C(Nc1nc2c(F)cccc2s1)c1ccc(S(=O)(=O)N2CCOCC2)cc1`: the inhibition is -3.97%.
The value for `CCc1nnc(SCc2nc(-c3ccccc3Cl)oc2C)c2cc3sc(C)cc3n12` was 7.11%.
The value for `COc1ccc2[nH]cc(CCNC(=O)Nc3ccccc3)c2c1` was 0.927%; that for `COc1ccc(CN(C(=O)c2ccccc2F)C2CCS(=O)(=O)C2)cc1` (stereo unspecified) was -11.6%; that for `Cc1ccc(NC(=O)CN2C(=O)c3cccnc3Sc3ccccc32)cc1C` was -11.1%.
As for `Cc1nc2sc(C)c(C)n2c(=O)c1S(=O)(=O)N1CCN(c2ccccc2F)CC1`, the inhibition is -14%.
The value for `Cc1ccc2c(Sc3ccc(Cl)cc3)c(C(=O)NCCC(C)C)[nH]c2c1` was 25.3%; that for `Cc1c(C(=O)N(Cc2ccc(N(C)C)cc2)CC2CCCO2)oc2ccccc12` (stereo unspecified) was 12%; that for `Cc1cccc(N2CCN(C(=O)c3ccc4nc(N5CCC(C)CC5)sc4c3)CC2)c1C` was 13%.
Under `Cc1cccc(C)c1NC(=O)Cn1c(=O)n(Cc2ccc(C(=O)NCc3ccco3)cc2)c(=O)c2sccc21` stands -1.47%; under `CCOC(=O)Cc1cc(C(=O)Nc2ccc(Br)cc2)sc1-c1ccc(C)cc1`, 11.2%; under `COc1cccc(N2CC(NC(=O)c3ccc4ccccc4c3)CC2=O)c1` (stereo unspecified), active: 34.4%.
The value for `Cc1ccn2c(NC(=O)c3cccc(Cl)c3)c(-c3ccccc3)nc2c1` was 5.51%; that for `CCCC(=O)N1CCc2cc(OC)c(OC)cc2C1COc1ccccc1OC` (stereo unspecified) was 11.4%.
With `CCc1ccc(CNc2ncc(-c3cccc(OC)c3)n2C)cc1`, the inhibition was -9.18%.
The value for `CCOC(=O)c1c(C)[nH]c(C)c1S(=O)(=O)N1CCCC(C(=O)Nc2ncccc2C)C1` (stereo unspecified) was 9.22%; that for `CCS(=O)(=O)N1CC(=O)N(c2cccc(Cl)c2)C(C)(C(=O)NC2CCCCCC2)C1` (stereo unspecified) was -0.252%.
The value for `CC(C)CCn1c(=O)c2cccnc2n(CC(=O)Nc2ccccc2)c1=O` was -2.47%; that for `Cc1oc(-c2ccc(C(=O)NCCC(C)C)cc2)nc1CS(=O)(=O)c1ccccc1` was 16.7%.
Turning to `COC(=O)c1sccc1S(=O)(=O)N(CC(=O)NCc1ccc(C)cc1)c1ccccc1`, the inhibition was -1.3%.
As for `N#Cc1c[nH]n2c(NC3CCCC3)c(-c3cccc(Br)c3)nc12`, the inhibition worked out at 9.17%.
The value for `CC1CCN(S(=O)(=O)c2ccc3c(c2)CCN3C(=O)Nc2cccc(Br)c2)CC1` was -7.05%; that for `Cc1ccc(-c2nc3n(n2)C(c2ccccc2Cl)C=C(c2ccc(Cl)cc2)N3)cc1` (stereo unspecified) was 18.9%.
Consider `CCOC(=O)c1ccc(CN(Cc2ccc(C)cc2)S(=O)(=O)c2ccc(F)c(C(=O)Nc3ccc(C)c(F)c3)c2)cc1`, for which the inhibition was -2.24%.
Under `CCOCCc1nn2c(=O)cc(COC(=O)c3ccccc3NC(=O)c3ccccc3F)nc2s1` stands 7.08%.
Under `Cc1ccc(S(=O)(=O)NC2(C(F)(F)F)NC(=O)N(c3ccc(F)cc3)C2=O)cc1` (stereo unspecified) stands 16.4%.
With `CCOc1ccc(C(=O)c2cn(CC(=O)Nc3ccc(OC)cc3)c3cc4c(cc3c2=O)OCO4)cc1`, the inhibition was -6.97%.
The value for `COc1ccccc1NS(=O)(=O)c1cccc(C(=O)NCC(c2ccco2)N2CCCC2)c1` (stereo unspecified) was active: 62.6%; that for `Cc1ccc(NC(=O)N2CC3CCCN3c3ccccc32)cc1C` (stereo unspecified) was 6.25%; that for `CCN(CC)Cc1ccccc1CNC(=O)c1cccc(S(=O)(=O)Nc2ccc3c(c2)OCO3)c1` was active: 74.5%.
Take `COc1ccc(C(=O)Nc2ccc(NC(=O)c3cccs3)cc2)cc1OC`: the inhibition is 1.1%.
Under `O=C(Oc1ccccc1C(=O)N1CCOCC1)c1cccc(Br)c1` stands active: 47.3%.
Under `COc1cccc(OC)c1OCC(O)CN1CCN(c2ccc(F)cc2)CC1` (stereo unspecified) stands active: 73%; under `Cc1cccc(C(=O)NCC(c2cccs2)S(=O)(=O)c2cccs2)c1` (stereo unspecified), -27.7%.
Regarding `Cc1ccc2oc3c(c(=O)c2c1)C(c1ccccc1F)N(c1ccccn1)C3=O` (stereo unspecified), the inhibition is -13.5%.
With `COc1ccc(Cn2ccnc2SCC(=O)Nc2ccc3c(c2)OCO3)cc1`, the inhibition amounted to 6.87%.
The value for `COc1ccc(-c2cc(C(F)(F)F)n3nc(C(=O)Nc4cc(C(F)(F)F)ccc4Cl)cc3n2)cc1OC` was -4.17%; that for `O=C(NCCc1ccccc1)C(=O)NCC1OCCN1S(=O)(=O)c1ccc(Br)cc1` (stereo unspecified) was active: 30.6%.
On to `CCN1CCN(Cc2c(O)ccc3oc(C)c(C(=O)Nc4ccc(OC)cc4)c23)CC1`, for which the inhibition worked out at 13.1%.
With `CCn1c(SCC(=O)Nc2cc3oc4ccccc4c3cc2OC)nnc1-c1cccs1`, the inhibition is active: 44.8%.
Turning to `Cc1ccc(NC(=O)CSc2nc3nc(C)c(Cc4ccccc4)c(C)n3n2)cc1`, the inhibition is 2.73%.
Under `CC(C)CNC(=O)N1CCN(S(=O)(=O)c2ccc3c(ccn3C)c2)CC1` stands 18%; under `Cc1oc2c(c1C(=O)Nc1ccc(F)c(F)c1)C1=NCCN1C=N2`, 4.79%.
